Assay results as given in ChEMBL document CHEMBL1122724, “Synthesis and kinetic studies of protease substrates containing the 1-methyl-6-aminoquinolinium ion as a fluorogenic leaving group” (J Med Chem, 1984).

Test system: O=C(O)CCCC(=O)N[C@@H](Cc1ccccc1)C(=O)Nc1ccc2ncccc2c1
Assay: Kinetic constant was determined from the initial rates of enzymatic hydrolysis by the Lineweaver-Burke method against alpha-chymotrypsin enzyme at a concentration of 2.0 uM
Settings: Sus scrofa

“Chymotrypsinogen B (Homo sapiens) (sequence not shown)” gave a Km of 1800 µM.
